Data reported in PubChem BioAssay AID602310 (National Center for Advancing Translational Sciences (NCATS), 2012).
In all, about 410,000 compounds went through this assay and about 310 (0.076%) were called active. Inconclusive means that the source gave no clear call. Such entries were picked first, then a sample of the others. Calls come from the whole dose curve; as a rule, active = well fitted curve in the direction sought with a large enough effect; inconclusive = small, poorly fitted or top-dose-only effect; inactive = flat fitted curve, though single readings scatter. Where the call is inconclusive, the potency comes from a doubtful curve fit.

What follows are molecules tested against DNA dC->dU-editing enzyme APOBEC-3G (Homo sapiens) (UniProt Q9HC16) (assay: qHTS for Inhibitors of Vif-A3G Interactions: qHTS). Settings: HeLa A3G-eYFP + Vif (tagged APOBEC3G with the HIV-1 protein that degrades it), YFP fluorescence, overnight; series mostly up to 46.1 µM.
UniProt Q9HC16, sequence (Q9HC16 whole entry, looked up): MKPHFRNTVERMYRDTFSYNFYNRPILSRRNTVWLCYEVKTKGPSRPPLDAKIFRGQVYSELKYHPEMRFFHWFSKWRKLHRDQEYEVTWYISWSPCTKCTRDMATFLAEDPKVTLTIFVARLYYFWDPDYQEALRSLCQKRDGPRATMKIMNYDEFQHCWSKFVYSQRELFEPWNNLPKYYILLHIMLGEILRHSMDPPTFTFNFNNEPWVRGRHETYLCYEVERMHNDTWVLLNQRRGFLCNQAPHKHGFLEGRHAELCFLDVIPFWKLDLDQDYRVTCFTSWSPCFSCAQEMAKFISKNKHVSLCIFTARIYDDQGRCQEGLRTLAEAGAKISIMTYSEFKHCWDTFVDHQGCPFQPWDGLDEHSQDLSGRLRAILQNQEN
In short: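 HeLa cells stably expressing Vif and C-terminally eYFP-tagged A3G, seeded overnight at 37 deg C, then exposed to compound by pintool overnight at 37 deg C. Rise in yellow fluorescence (Ex 488/Em 500-530, Acumen) marks blocked Vif-driven A3G degradation.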
Note: nearly all actives have a fitted effect of over 60% in size.
Potency is the fitted concentration of half-maximal effect; tags give direction and shape of the fitted curve.

Structure (SMILES) | Potency
O=[N+]([O-])c1cc(S(=O)(=O)N2CCCCCC2)ccc1F | inconclusive: 35.5 µM [inhibitor, single point]
Cc1ccc(NC(=S)Nc2cccc3cnccc23)c(C)c1 | inactive
CCOC(=O)c1sc(NC(=O)CSc2n[nH]c(-c3ccncc3)n2)c(C#N)c1C | inactive
Oc1ccc(N=Cc2ccc(-c3cccs3)s2)cc1 | inconclusive: 25.1 µM [inhibitor, single point]
C#CC(C)(C)NS(=O)(=O)c1cc(-c2nnc(Nc3ccc(C)cc3)c3ccccc23)ccc1C | inactive
COc1ccc(NC(=O)CCS(=O)(=O)c2nc(-c3cccs3)cc(C(F)(F)F)n2)cc1OC | inconclusive: 22.4 µM [inhibitor, single point]
COc1ccccc1CNc1ccc2c(c1)CCC2 | inconclusive: 22.4 µM [inhibitor, single point]
COc1ccc(C(=O)/C=C2\Sc3ccccc3N2C)cc1 | inactive
Cc1cc(=O)oc2cc(OCC(=O)N3CCOCC3)ccc12 | inactive
CC(=O)c1cccc(-c2ccc3c(c2)C(C)(Cc2ccccc2C#N)C(=O)N3)c1 (stereo unspecified) | inconclusive: 35.5 µM [inhibitor, single point]
CCCCCCc1cc2cc(-c3nnc(-c4cc(OC)c(OC)c(OC)c4)o3)c(=O)oc2cc1O | inconclusive: 1.26 µM [inhibitor, full curve, poor fit]
O=C(Nc1nc(-c2cccs2)cs1)c1ccc([N+](=O)[O-])o1 | inconclusive: 5.01 µM [inhibitor, full curve]
CCCn1c(CN2CCN(C(=O)OCC)CC2)nc2cc(NC(=O)C(C)C)ccc21 | inconclusive: 12.6 µM [inhibitor, partial curve, poor fit]
Cc1ccc(COc2cccc3c2CCN(Cc2ccc(F)cc2)C3=O)cc1 | inactive
COc1cccc(N2CCN(C(=O)c3ccc4ccccc4c3)CC2)c1 | inconclusive: 35.5 µM [inhibitor, partial curve, poor fit]
O=C(N/N=C/c1ccc2c(c1)OCO2)c1cc(-c2ccc(F)cc2)nc2ccccc12 | inconclusive: 4.47 µM [inhibitor, full curve]
CN(C)c1ccc(/C=N\NC(=O)c2cccc3cc[nH]c23)cc1 | inconclusive: 10 µM [inhibitor, partial curve]
C#CCOCCOCCOCCNc1nc(N2CCN(C(=O)CCCCCCCCCCNC(=O)[C@H](CCCCN)n3cc(C[C@@H](C)CC)nn3)CC2)nc(N2CCN(C(=O)CCCCCCCCCCNC(=O)[C@@H]([C@H](C)O)n3cc(C)nn3)CC2)n1 | inconclusive: 11.2 µM [inhibitor, partial curve, poor fit]
Fc1cc(F)c(C2SCCN2C(=S)Nc2cccc(C(F)(F)F)c2)c(F)c1 (stereo unspecified) | inactive
CCC(CN(C)C)Oc1cc(NCc2ccccc2)c2ncn(C(C)C)c2c1 (stereo unspecified) | inconclusive: 25.1 µM [inhibitor, single point]
COc1ccc(C(=O)/C=C/c2ccccc2)c(O)c1 | inactive

Structure (SMILES) | Potency
Cc1cccc(Cn2c(=O)n(-c3ccc(CC(=O)NCc4ccco4)cc3)c(=O)c3sccc32)c1 | inconclusive: 8.91 µM [inhibitor, partial curve, poor fit]
COCCNC(=S)NN=C1CCCCC1 | inconclusive: 35.5 µM [inhibitor, single point]
CCCc1cc(=O)[nH]c(SCC(=O)N2N=C(c3ccc(Cl)cc3)CC2c2ccco2)n1 (stereo unspecified) | inactive
COCCNc1ncnc2c1cnn2Cc1ccc(Cl)cc1 | inconclusive: 17.8 µM [inhibitor, single point]
Cc1ccc(S(=O)(=O)N2CCCCC2CCNC(=O)C(=O)NCCc2ccco2)cc1 (stereo unspecified) | inconclusive: 7.08 µM [inhibitor, partial curve, poor fit]
Cc1ccccc1Cc1c(C)nc2c(C(=O)N3CCN(Cc4ccc5c(c4)OCO5)CC3)cnn2c1C | inactive
COc1ccc(OCC(=O)Nc2ccccc2N2CCCCC2)cc1 | inconclusive: 1.58 µM [inhibitor, partial curve, poor fit]
Cc1cc(NC(=O)CSc2nc(-c3cccs3)nc3ccccc23)no1 | inconclusive: 1.26 µM [inhibitor, full curve, poor fit]
O=[N+]([O-])c1ccc(/C=N/Nc2ncccc2[N+](=O)[O-])s1 | inconclusive: 6.31 µM [inhibitor, single point]
COc1cccc(NC(=O)Nc2nc(-c3ccc(OC)c(OC)c3)cs2)c1 | inconclusive: 7.08 µM [inhibitor, partial curve]
COc1ccc(OCC(=O)Nc2nc(-c3ccc(Br)cc3)ns2)cc1 | inactive
Cc1c(C(=O)OC2CCC(C)CC2)[nH]c2c1C(=O)CC(c1ccccc1Cl)C2 (stereo unspecified) | inconclusive: 15.8 µM [inhibitor, single point]
C=CCSc1nnc(N2C(=O)C(O)=C(C(=O)c3ccco3)C2c2ccc(F)cc2)s1 (stereo unspecified) | inconclusive: 35.5 µM [inhibitor, single point]
COc1cc(-c2nccc3cc4c(cc23)OCO4)cc(OC)c1OC | inconclusive: 5.01 µM [inhibitor, full curve]
O=C1/C(=C/c2cccs2)COc2ccccc21 | inconclusive: 35.5 µM [inhibitor, single point]
Cc1nc2c3ccccc3n(Cc3ccccc3F)c2s1 | inconclusive: 11.2 µM [inhibitor, partial curve, poor fit]
COc1ccccc1NC(c1cccnc1)c1ccc2cccnc2c1O (stereo unspecified) | inconclusive: 35.5 µM [inhibitor, single point]
Cc1ccc(C(=O)/C=C/c2cn(CC(O)CN3CCCCCC3)c3ccccc23)cc1 (stereo unspecified) | inconclusive: 25.1 µM [inhibitor, single point]
COc1cc(/C=C2/C(=O)NN(c3cccc(C)c3)C2=O)cc([N+](=O)[O-])c1O | inactive
CC(C)(C)NS(=O)(=O)c1ccc2nc(NC(=O)Cc3cccs3)sc2c1 | inconclusive: 10 µM [inhibitor, partial curve, poor fit]
